Experimental data: the supplement of paper PMC10126150
Sequences with one replicate were seen in a single cluster, so their values are uncertain.

System: ATP
Test: switch fluorescence ratio, 500 uM ATP over buffer (Cy3 cluster intensity, sum of 5 cycles each) (fold (ratio)); higher = stronger signal-on switching upon ATP binding; sequences stand for … in TCGTCGGCAGCGTCAGATGTGTATAAGAGACAGTTTTTTTTTTTTTTTTTTTTTTTTT…TC
Conditions: aptamer strand: ATP DNA aptamer (quencher-CACCTGGGGGAGTATTGCGGAGGAAGG + anchor), 100 nM annealed; ATP concentration: 500 uM; one replicate
Procedure, shortened: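 Clusters carrying Cy3-labelled switching strands on a modified Illumina MiSeq flow-cell were annealed to 100 nM quencher-labelled ATP aptamer and imaged in selection buffer. They were imaged again after 15 min with 500 uM ATP at 22 °C, over five buffer/ATP cycles with NaOH stripping and re-annealing in between. For each cluster, the fluorescence ratio is the summed Cy3 intensity of the target cycles divided by that of the buffer cycles, averaged per switch-domain sequence. Clusters outside 100-1000 RFU were left out.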
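Further: ATP exposure 15 min at 22 °C before imaging.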

Sequence	switch fluorescence ratio
GCTTCTCCGA	1.49
TGGCCCTCCA	1.01
CGATCTGAGT	0.986
TATAGGCGG	1.02
TCCCAGTGAT	1.8
AAACCGTATT	1.13
CAGAGGCTG	1.07
CTGATAGGTG	1.02
GTTGTTTGGC	1.01
AACTGTTGGA	0.976
GTTTACACC	1.02
AGATTGGCGC	0.984
AGATCATTAA	0.981
CGTTAAGAAG	1.01
TAGTGGAGGC	1.06
CACCTTTGCC	1.08
GGTCGTCGAT	0.963
TTTCGTAGGC	1.02
AATCCAAAAA	0.981
ACGCCGCGTG	1.1
GGTAAACATG	1.04
CGAGGTAGAC	1.5
TCGGATGGAA	1.03
TGAAAATAAT	0.985
TCGTGGCTGG	1.01
TGGATAGAGA	0.991

Sequence	switch fluorescence ratio
GAATGAGAGC	1.01
TTTACCCAGA	1.03
GTGCGAAGTG	1
GATGAGGGTT	1.27
GCCCGAGGGT	0.986
GAACGAGTCA	0.971
CGGGGTTGAG	0.954
CGGGACCATT	1.03
TATGGCTCTC	0.971
TGGGTCGGAC	1.03
CTTCGGACAT	1.1
TTAACGTGCT	1.05
GGTCGACGCA	0.988
CGAGTCAATA	4.22
GTAACTGGAC	1.2
AAAAGTGTGA	1.01
GCCTCATTTG	1.07
GAGGGCCTCC	0.997
ACAGCCAAGT	1.06
TTGGGCTTCC	0.967
TATGCAGTGG	1.04
TTGAGTATTC	1.03
CTGAGACAGG	1.06
AAACCACTGC	1.05
GCTCTTTTTA	1.01
GCCACGATTT	0.996

Sequence	switch fluorescence ratio
GGGCAAAGCG	0.988
GACCCAGT	1.12
CAATTGGGGC	1.01
CGAAAGGTCC	1.03
ATTAACTAGG	0.984
GCATGGTG	1.04
GTTACATAGG	1.01
AAGAGGCCAC	0.924
GATGCAACGC	1.09
AGTGGTGCG	1.03
GCGAGCTGTT	1.03
GCAGCCAGAG	1.11
GTAGTAAGGG	1.02
CGATTGGCGT	1.02
TCTAGGGAGC	0.89
TGTCCCTGTA	0.955
TCTGATAACG	1.03
AGAATGCTGG	1.03
AAGCCATTAT	1.06
TCGGCCCCGT	1.22
TAGGATGTCC	1.04
TTGTAAACAA	1.05
TTTACGCTAG	1.05
CCAGGAGTGA	1.09
AACGCAGTTA	0.972
ACAGCGAAT	1.01

Sequence	switch fluorescence ratio
TCACAGATAG	0.981
TAGTTGAAAT	1.01
ATAGAGGTAT	0.985
GAAAACTCTG	0.993
CCTTGGTAAC	1.28
GCCAACTGCG	0.941
CGGTCATGTT	0.989
AATCTGCAGT	1.03
CTTACCAACC	1.22
ACGGAAGTTT	1
GTCGCTCTTA	0.985
TGCTGAAAAA	0.974
TTCTTAACG	0.994
ACATATGCT	1.04
GGTCTCCTTC	0.981
CTAACGGAGG	1.02
GTAAAAAT	1
TGCGTCTAAA	0.98
GATAATGAAA	1.02
AGGGATGGAT	0.917
TCCCACGTTT	0.99
GACTGGGTAT	1.05
CCACCTCAAA	1.56
AAGGGAATCG	1.03
GGGTCAATGC	2.2
CGCATGGATC	1.08

Sequence	switch fluorescence ratio
CATTGATTGA	0.961
CACTTAGCTA	1.06
GATGTATAGT	0.954
GGTAGGTGCG	0.978
AGCGGACTGG	1
GAAATGTTT	1.02
GATTTTCCCC	0.989
GTAAATGCTG	0.855
GTTAGATGG	1.06
ACAGTGGCTG	1.03
AGCACAGTGG	0.999
CCTGCCGGTT	1.02
GAAACTCGG	1.03
TAGTGGAGG	1.04
ATGAGCAGTG	0.99
CCAGAAGACT	0.963
GTTGTTTGCC	1.01
CCCCTTGACT	1
CACTCGGCAT	3.07
CGATCCTTCT	1.06
TGTGCTACCT	1.1
CTGTCCGGA	1.04
CGGGAACAC	1.15
CCGTCTCCGT	1.68
ATGCCCGCGA	1.65
GGGTTACCAA	1

Sequence	switch fluorescence ratio
AGGGGAGAG	0.993
TTACAAAAGT	1.04
GTTTCTAACG	1.03
GTCTGAAGTA	0.954
GCAATGTACG	1.22
GTATTTTCTT	1.01
ATGATTTTCA	1.01
GTCTTTGATT	0.928
GAGTAGCAGC	1.01
CGCTAATCTT	1.08
CATGATTGGT	0.962
CAATGCAGTA	1.1
CGTGTAAGTT	0.995
TAGTTAAGTG	0.97
AAAAGGCAGA	0.979
CATATAGAA	0.969
GTGGCCGTGG	0.987
ACCCACGATG	1.47
GAACTGGTTC	0.974
TGACTAGGGC	1.02
CTCAAATAGC	1.26
TCCAGCAGTT	0.998
GCTGGCAGAA	0.993
TCGTGGTATA	0.964
CTCCGGGAG	1.35
TGTTGTTAAC	0.993

Sequence	switch fluorescence ratio
CTGGGACGGT	0.984
ATTACACCAG	1.11
TGATAAGACT	1.01
CGATTAATAA	1.05
CATGTGCTGG	1.01
AACGAAGTCT	1.01
CGTGATGCGG	0.98
CGACTCCGGT	1.66
AAGTGTTCAC	1.05
GGGTGGGCAA	1.07
ACAGCGGGAA	0.943
GATGTACCTT	1.1
CGCTGTCCCC	2.34
GATGGCACGC	1.08
AACCGGTTGA	1.01
TGTGGAGGTA	0.971
CCAGGCCTTT	0.998
GTGGTAATGT	1.01
TTAGGACTCT	0.972
CACTCGCACG	1.28
TATCCTTCAA	1.04
CATACCCCAT	1.04
GACTGCTAGA	1.09
CGGTACGAAA	1
TGTTCAAGTA	0.983
GTTGGTTTGA	1

Sequence	switch fluorescence ratio
TACTAAATCG	1.03
GGAGCGGATA	1.13
CGGTCGTGAG	1.04
AATGGGGGT	0.983
ACGTAGATTA	1.07
ATGTGATATA	0.971
GGCGTTCCTA	1.02
TAAAAGGTTC	1
GGTGAGCCTA	1.02
GCAGAGTGGC	0.999
GTTTGCACGC	1.06
TTGCTACCAG	1.01
GTGAGGTGAG	1
AGTGATGCGC	1.05
GTGTAGTGAC	1.03
TCGCATGAGA	1.03
GACCCCGGCT	1.02
TAGTCAGCGC	0.989
TACTTTTTG	0.977
